These are yes or no findings as the source states them, for the method shown. In cells and extracts the contact can be indirect. Some results given as binding are weak or reduced against the parent protein; the word gives no strength. For part of these data: Sequences can lack the tags named with a protein.
Tests used:
[1] = biological target: T1, FLAG-tagged IKKε (IκB kinase ε) (UniProt Q14164); assay: co-IP
T1 sequence: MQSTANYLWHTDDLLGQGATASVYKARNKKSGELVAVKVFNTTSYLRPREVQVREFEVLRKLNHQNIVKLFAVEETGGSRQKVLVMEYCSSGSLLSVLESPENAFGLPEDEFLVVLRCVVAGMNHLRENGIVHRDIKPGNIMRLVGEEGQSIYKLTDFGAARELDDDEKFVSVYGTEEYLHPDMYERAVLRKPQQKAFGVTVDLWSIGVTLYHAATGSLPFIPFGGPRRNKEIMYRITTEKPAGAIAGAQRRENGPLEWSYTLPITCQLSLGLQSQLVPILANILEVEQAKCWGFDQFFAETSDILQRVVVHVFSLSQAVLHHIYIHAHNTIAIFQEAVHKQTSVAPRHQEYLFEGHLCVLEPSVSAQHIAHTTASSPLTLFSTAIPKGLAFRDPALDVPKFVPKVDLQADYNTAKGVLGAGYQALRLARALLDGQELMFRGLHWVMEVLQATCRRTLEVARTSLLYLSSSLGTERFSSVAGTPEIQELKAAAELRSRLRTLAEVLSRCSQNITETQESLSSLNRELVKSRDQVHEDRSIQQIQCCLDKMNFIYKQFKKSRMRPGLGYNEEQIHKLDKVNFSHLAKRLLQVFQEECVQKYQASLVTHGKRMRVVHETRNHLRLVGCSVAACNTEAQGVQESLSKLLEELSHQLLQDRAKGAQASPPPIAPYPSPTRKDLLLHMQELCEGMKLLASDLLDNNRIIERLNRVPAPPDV

The chains behind the UniProt entries cited, without tags or fusion partners.
UniProt Q7Z434: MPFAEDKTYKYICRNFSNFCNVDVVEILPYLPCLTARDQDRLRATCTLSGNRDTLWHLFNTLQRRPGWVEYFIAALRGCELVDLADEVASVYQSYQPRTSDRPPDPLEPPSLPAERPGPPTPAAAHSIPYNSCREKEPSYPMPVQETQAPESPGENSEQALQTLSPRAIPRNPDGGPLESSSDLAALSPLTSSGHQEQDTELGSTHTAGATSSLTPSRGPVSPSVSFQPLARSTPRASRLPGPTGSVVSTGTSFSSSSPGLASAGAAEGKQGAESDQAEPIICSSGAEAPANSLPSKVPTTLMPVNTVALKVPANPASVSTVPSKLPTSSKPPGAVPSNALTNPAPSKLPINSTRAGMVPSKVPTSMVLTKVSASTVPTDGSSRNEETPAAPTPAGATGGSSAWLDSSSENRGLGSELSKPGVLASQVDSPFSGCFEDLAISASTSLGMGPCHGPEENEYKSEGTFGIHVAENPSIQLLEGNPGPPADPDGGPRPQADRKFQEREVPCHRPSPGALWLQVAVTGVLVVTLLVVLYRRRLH
UniProt P22026: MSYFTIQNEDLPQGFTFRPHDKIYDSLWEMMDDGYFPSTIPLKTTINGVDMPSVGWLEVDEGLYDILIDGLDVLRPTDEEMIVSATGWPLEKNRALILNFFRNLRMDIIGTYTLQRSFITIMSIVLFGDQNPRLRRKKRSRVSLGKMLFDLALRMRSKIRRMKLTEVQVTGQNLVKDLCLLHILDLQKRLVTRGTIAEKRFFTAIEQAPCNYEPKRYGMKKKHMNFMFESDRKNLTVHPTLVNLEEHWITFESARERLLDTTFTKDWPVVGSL
UniProt A0A0B5AC19: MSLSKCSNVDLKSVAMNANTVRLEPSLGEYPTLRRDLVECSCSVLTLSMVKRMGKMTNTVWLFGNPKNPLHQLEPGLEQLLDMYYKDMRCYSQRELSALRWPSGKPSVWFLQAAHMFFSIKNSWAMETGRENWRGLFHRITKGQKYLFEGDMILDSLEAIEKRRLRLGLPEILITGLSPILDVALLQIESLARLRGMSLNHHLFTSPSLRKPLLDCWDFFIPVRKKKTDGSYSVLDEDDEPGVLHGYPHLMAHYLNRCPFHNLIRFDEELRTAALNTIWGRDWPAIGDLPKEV
UniProt P42224: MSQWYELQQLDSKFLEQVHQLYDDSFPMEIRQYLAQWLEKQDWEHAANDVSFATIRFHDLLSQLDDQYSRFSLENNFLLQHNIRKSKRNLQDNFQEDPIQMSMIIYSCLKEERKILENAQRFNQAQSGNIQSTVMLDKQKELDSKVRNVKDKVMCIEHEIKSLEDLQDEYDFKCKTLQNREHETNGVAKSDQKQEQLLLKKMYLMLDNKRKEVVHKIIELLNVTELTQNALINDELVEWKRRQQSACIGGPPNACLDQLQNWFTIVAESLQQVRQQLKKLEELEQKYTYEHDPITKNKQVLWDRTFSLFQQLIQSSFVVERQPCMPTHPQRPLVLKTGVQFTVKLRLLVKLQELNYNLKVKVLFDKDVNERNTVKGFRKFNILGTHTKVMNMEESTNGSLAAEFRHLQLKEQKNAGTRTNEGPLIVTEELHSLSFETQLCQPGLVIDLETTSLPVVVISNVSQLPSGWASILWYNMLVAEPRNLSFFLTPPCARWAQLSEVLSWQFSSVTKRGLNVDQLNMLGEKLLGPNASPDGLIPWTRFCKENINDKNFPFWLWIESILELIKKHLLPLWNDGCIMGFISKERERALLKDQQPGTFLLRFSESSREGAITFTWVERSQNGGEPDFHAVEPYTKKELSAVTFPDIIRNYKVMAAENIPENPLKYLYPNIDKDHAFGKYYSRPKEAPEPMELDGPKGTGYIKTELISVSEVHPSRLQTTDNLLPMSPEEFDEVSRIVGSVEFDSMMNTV
UniProt P52630: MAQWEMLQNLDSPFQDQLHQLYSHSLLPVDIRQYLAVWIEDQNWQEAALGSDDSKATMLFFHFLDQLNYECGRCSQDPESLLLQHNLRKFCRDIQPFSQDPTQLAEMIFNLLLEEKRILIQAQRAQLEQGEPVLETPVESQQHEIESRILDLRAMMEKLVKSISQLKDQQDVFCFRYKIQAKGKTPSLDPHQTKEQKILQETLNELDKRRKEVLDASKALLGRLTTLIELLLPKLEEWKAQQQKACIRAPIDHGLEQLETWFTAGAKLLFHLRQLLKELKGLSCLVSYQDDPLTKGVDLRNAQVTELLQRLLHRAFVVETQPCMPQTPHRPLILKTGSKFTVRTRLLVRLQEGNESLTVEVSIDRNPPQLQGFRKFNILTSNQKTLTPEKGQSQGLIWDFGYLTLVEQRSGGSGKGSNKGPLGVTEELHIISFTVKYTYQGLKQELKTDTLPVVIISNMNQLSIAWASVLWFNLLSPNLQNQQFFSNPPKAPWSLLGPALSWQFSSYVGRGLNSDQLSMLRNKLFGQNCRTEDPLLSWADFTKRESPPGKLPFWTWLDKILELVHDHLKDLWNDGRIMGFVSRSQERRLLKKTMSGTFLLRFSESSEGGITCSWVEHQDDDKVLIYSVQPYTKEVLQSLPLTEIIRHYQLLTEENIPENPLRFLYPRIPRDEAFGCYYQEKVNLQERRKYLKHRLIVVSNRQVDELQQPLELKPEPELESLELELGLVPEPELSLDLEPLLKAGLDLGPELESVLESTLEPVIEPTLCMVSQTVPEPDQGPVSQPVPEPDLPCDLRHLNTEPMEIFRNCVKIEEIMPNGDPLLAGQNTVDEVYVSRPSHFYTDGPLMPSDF
UniProt P40763: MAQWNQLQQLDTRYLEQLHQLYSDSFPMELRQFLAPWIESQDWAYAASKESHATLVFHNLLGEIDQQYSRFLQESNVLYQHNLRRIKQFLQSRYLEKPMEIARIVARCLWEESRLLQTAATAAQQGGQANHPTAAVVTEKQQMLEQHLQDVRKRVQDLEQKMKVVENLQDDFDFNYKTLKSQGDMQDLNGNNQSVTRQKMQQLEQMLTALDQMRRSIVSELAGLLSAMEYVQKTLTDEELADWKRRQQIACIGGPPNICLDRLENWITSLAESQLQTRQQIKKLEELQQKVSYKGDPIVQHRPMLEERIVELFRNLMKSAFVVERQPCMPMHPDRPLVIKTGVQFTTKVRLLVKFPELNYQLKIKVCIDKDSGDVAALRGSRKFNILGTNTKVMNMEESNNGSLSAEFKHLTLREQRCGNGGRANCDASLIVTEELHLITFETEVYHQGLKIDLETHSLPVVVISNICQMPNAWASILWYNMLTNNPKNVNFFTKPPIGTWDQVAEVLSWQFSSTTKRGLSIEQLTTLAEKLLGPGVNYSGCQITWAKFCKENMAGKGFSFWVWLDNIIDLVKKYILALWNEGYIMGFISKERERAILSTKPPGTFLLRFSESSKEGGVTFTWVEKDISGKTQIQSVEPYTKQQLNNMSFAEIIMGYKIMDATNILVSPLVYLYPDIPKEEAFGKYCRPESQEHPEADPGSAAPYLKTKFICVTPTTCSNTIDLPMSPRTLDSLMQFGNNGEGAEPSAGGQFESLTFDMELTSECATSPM

[2] = biological target: FLAG-tagged MAVS (mitochondrial antiviral-signaling protein) (UniProt Q7Z434); assay: co-IP
[3] = biological target: T2, FLAG-tagged TBK1 (TANK-binding kinase 1) (UniProt Q9UHD2); assay: co-IP
T2 sequence: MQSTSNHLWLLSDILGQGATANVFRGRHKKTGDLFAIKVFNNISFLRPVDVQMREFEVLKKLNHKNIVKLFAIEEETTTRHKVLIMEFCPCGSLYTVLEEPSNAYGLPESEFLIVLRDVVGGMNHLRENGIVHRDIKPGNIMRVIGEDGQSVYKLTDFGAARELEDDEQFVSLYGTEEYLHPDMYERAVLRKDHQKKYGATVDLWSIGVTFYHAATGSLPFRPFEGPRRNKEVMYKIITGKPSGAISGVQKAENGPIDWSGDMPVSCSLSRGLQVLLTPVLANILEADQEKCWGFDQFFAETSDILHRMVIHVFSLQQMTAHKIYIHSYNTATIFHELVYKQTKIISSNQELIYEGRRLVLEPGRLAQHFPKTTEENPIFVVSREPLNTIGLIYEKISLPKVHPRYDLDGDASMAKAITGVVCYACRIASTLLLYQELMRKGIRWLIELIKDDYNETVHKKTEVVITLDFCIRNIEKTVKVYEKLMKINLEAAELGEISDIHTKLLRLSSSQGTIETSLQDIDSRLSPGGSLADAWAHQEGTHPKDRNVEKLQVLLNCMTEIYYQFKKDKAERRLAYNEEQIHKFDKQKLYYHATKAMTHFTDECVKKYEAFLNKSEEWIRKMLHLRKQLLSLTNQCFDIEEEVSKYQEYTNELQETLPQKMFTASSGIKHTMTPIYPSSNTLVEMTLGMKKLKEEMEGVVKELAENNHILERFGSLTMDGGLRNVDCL

[4] = biological target: V5-tagged UUKV NSs (Uukuniemi virus nonstructural protein NSs, C-terminal V5 tag) (Uukuniemi virus) (UniProt P22026); assay: co-IP
[5] = biological target: UUKV NSs (native, untagged, from UUKV infection) (Uukuniemi virus (strain derived from prototype S-23)) (UniProt P22026); assay: co-IP; […]) for 8 h, […] (25 mM HEPES pH 7.5, 150 mM NaCl, 50 mM MgCl2, 1% Triton X-100); […]
[6] = biological target: V5-tagged SFTSV NSs (severe fever with thrombocytopenia syndrome virus nonstructural protein NSs, C-terminal V5 tag) (severe fever with thrombocytopenia syndrome virus); assay: co-IP

Substance	binding [1]	binding [2]	binding [3]	binding [4]	other results
V5-tagged SFTSV NSs (severe fever with thrombocytopenia syndrome virus nonstructural protein NSs, C-terminal V5 tag) (from UniProt A0A0B5AC19 1-293)	no binding	no binding	binds		
V5-tagged UUKV NSs (Uukuniemi virus nonstructural protein NSs, C-terminal V5 tag) (from UniProt P22026 1-273)	no binding	binds	no binding		
FLAG-tagged MAVS (mitochondrial antiviral-signaling protein) (from UniProt Q7Z434 1-540)				binds	binding [5]: binds weakly
endogenous STAT1 (from UniProt P42224 1-750)				no binding	
endogenous STAT2 (from UniProt P52630 1-851)				no binding	binding [6]: binds
endogenous STAT3 (from UniProt P40763 1-770)				no binding	

Reference: article PMC5489658
